The list shows a part of the results.
test system: PfHDP1 homeodomain (GST-tagged); assay: gcPBM binding intensity (ln(normalized median fluorescence intensity)); higher = stronger DNA binding
Procedure, shortened: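 GST-tagged P. falciparum DNA-binding domains, expressed in E. coli (about 25 μg on average), were applied for 1 h to an Agilent 4 × 180k array of primer-extended double-stranded 36-bp intergenic genomic probes plus negative controls. The binding buffer was 1× PBS with 1% milk, 0.2 mg/ml BSA, 0.5% salmon testes DNA and 0.03% Triton X-100. Bound protein was detected with Alexa488 anti-GST antibody and scanned at 488 nm. Binding intensity is the highest Masliner-normalised natural-log median intensity across replicate spots of either probe orientation.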

| Sequence | gcPBM binding intensity (ln) |
| --- | --- |
| TTAACATAGATATATACACACCAATGATGGCATTTA [CACACA_site6840] | 6.33 |
| ATTATTTTGTTTATTACATGCAGGTGTATATTACAG [TGCATGCA_site723] | 6.77 |
| GAGTATATTTATATTGCACACAATTTTTTTATTTTT [CACACA_site2644] | 10.5 |
| TTAAATACTAAAAAGTGTACACATACATAAAAAATT [XGTACX_site6261] | 7.13 |
| ATTATGTTAATAATATGTACATATATCTACATATAT [XGTACX_site7978] | 6.45 |
| TGCATAAATTTATGCACACATAAAAAAAAAAAAAAA [CACACA_site2923] | 10.4 |
| CAACTCTTATTTAATTATATGAATTAATTTATATGA [CACACA_negctrl_site200] | 5.88 |
| CATAAATGTCTCACATGTACATATGCATTTTTAAAA [XGTACX_site3194] | 6.69 |
| TATATATAATATTGCACACAAAATTAAAAGTAAATA [CACACA_site19] | 10.3 |
| TGAACTTTAAACCCTGAACACACACTAATACACCCA [CACACA_site7970] | 7.15 |
| AATATGTCATATATGTGTACATATGCACAGATATTA [XGTACX_site951] | 9.04 |
| ATAAAAAGAAATCCAATACACACCTTCAAAATGGGT [CACACA_site1622] | 6.72 |
| TCATTCAGTTTTATCACACACAATCAAACATATATA [CACACA_site2742] | 6.75 |
| AAACATTTATCAATGAATCTTTTAATAAGTGTAAAG [XGTACX_negctrl_site80] | 6.32 |
| ATTCAATATTTATACACACACACTTTTAATAATTAA [CACACA_site7725] | 7.16 |
| ATATATATAATAAATACACACATTTATATAGATAAA [CACACA_site3254] | 6.67 |
| TCAACATTCATTGGAAGTACTCACTCCCATATAATA [XGTACX_site5211] | 6.04 |
| TATTTTTTTAGATATACATGCAAAAACAGAAGAAAT [TGCATGCA_site283] | 6.73 |
| AATATAAGGATATATACACACATAAATACATACATA [CACACA_site7859] | 6.62 |
| AAAATATTATCTAATTGTACTTATATAACTATATAT [XGTACX_site5699] | 6.08 |
| TTGAAATGCATGAACACACACAGCTATAAATGCATA [CACACA_site968] | 6.48 |
| ATACTAAGGAGAAAAGAAAAGTGAATTTATTCTATA [CACACA_negctrl_site1792] | 5.89 |
| AAATTTATGAACCTAGTGCAGAAATTAAAAAGATGA [GTGCAC_site9396] | 7.56 |

| Sequence | gcPBM binding intensity (ln) |
| --- | --- |
| TAATAAATAAATGACACACACACACCCAAAAAAAAA [CACACA_site2623] | 6.77 |
| AGCTATGTATTCTACACACACATACACCCATATATA [CACACA_site5827] | 6.97 |
| TTATTAACCTAAATTAGTACATATAATATAAAAAAT [XGTACX_site8661] | 6.59 |
| TATATATAAACAAAATGTACATATTTGAGATACCCT [XGTACX_site2195] | 7.12 |
| AAACCGTGGGAGCACACACACACACGCGCACATATA [CACACA_site6288] | 7.5 |
| TGTTTCTAAAAAAAAGGTACACATATATATAATATA [XGTACX_site3217] | 6.33 |
| GTAACCCACCAAAATGCACACATTAAAAAAAAAAAA [CACACA_site1046] | 9.93 |
| AATACCGGAAAGCAAACACACATTTGAAAACCATAA [CACACA_site7761] | 6.58 |
| TATATATTATATATATGTACATATTTATTTTATTTT [XGTACX_site6989] | 6.57 |
| AAAAAATTTCAAATGACATAATGTAATTTCCCTTTT [GTGCAC_negctrl_site673] | 5.96 |
| TTTATCAAAATAAATGCACACAAATTGCACATATCT [CACACA_site8281] | 10.9 |
| ATAGTTTATACAAATAGTACGCACAAAAAAAAATAA [XGTACX_site6727] | 7.03 |
| CAATACTATTATTATAGTACGTATAAAATTATATAT [XGTACX_site4950] | 6.44 |
| TACAAAAAAGAAGATATTCAAACAAAAACAAAAAAA [CACACA_negctrl_site1126] | 6.56 |
| AGTAAACGATGATGTTGTACAAAAAGGATAATTTAA [XGTACX_site6698] | 6.84 |
| TTTTTATTTTTTATGTAATTTAAATAATTATTCAAA [CACACA_negctrl_site1549] | 6.05 |
| GTATTCTTCTCTCCGTGTACATATATATGTATATAT [XGTACX_site803] | 7.66 |
| TATATATATATGCTACGTACATATATATTATATATA [XGTACX_site7894] | 9.01 |
| TATCATAATAGACACAGTACATATATGTCTTAAATT [XGTACX_site8775] | 6.32 |
| ACACATACATACATATGTACATATATACATATATAC [XGTACX_site5559] | 6.8 |
| ATAATGTTTTATAATACACACATTATATATATAAAT [CACACA_site6101] | 6.91 |
| GATTACAAAAAAAATACACACAAAAAAAAAAAGGAA [CACACA_site2096] | 6.51 |
